Data published in article PMC4738361.
No constants are given. Whether binding was seen depends on the method and setting. Binding seen in cells or lysates may run through a third protein. Some results given as binding are weak or reduced against the parent protein; the word gives no strength. For some of these results: Tags and fused reporters may be left off the sequences shown. Values belong to the molecule of their own block, whether it stands above or below them.

Amino acid sequences for entries named in this document (tags omitted).
UniProt Q9UM11: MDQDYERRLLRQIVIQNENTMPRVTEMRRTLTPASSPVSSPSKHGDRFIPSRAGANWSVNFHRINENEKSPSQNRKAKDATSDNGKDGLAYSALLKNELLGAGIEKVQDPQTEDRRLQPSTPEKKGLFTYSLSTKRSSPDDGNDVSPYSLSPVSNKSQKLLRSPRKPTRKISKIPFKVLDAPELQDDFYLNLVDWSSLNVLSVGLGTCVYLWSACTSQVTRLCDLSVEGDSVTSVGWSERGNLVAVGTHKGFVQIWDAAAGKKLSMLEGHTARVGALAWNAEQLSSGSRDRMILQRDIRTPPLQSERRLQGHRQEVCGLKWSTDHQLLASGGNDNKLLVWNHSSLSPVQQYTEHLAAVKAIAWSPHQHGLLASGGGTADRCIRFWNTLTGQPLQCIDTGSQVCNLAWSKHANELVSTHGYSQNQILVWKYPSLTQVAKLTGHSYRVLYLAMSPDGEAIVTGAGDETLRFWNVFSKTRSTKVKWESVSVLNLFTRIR

Assays:
[1] = molecular target: T1, HA-tagged mutant CDC6 (dl 93–100) (HEK-293T) (human) (UniProt Q99741); experiment: co-IP; CDC6 WT and dl93–100 with CDH1 (Supplementary Fig. 1c); cells, bait and resin not shown
T1 sequence: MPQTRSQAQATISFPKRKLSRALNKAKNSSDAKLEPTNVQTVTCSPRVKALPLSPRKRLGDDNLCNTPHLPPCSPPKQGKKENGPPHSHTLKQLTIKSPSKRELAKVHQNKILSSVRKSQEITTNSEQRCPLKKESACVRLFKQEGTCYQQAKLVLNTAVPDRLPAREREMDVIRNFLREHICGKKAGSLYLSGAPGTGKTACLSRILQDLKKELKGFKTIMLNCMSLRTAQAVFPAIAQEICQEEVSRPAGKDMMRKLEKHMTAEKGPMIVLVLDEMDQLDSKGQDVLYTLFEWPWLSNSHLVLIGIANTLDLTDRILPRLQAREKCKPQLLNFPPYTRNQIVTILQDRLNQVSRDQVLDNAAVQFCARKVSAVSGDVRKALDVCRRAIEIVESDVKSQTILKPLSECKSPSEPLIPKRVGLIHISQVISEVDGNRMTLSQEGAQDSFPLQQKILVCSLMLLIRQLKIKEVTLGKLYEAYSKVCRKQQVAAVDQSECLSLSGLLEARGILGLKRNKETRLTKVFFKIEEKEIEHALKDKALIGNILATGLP

[2] = molecular target: T2, HA-tagged wild-type CDC6 (HEK-293T) (human) (UniProt Q99741); experiment: as above
T2 sequence: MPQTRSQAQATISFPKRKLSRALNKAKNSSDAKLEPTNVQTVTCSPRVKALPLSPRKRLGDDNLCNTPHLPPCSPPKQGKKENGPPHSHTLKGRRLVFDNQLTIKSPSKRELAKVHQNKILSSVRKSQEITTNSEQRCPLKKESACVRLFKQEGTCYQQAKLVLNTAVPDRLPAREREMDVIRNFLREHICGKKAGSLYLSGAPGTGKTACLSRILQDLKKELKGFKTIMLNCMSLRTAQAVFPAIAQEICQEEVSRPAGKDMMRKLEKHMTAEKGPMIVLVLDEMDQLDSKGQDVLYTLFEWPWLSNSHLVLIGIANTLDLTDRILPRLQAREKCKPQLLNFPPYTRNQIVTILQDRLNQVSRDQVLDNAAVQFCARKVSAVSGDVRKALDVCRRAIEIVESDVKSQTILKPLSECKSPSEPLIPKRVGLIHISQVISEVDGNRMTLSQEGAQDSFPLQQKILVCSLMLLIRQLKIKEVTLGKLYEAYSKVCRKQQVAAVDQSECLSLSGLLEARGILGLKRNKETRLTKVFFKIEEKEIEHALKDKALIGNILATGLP

[3] = molecular target: T3, GST-CDC6 1–362 WT (human) (UniProt Q99741); experiment: pull-down; GST-CDC6 1–362 (WT or dl93–100) on glutathione-sepharose beads; in vitro translated 35S-labelled Cyclin F (WT or MR/AA) bound for 2 h at 20 °C in 20 mM Tris pH 8, 200 mM NaCl, 0.5% NP40; autoradiography; only the target purified
T3 sequence: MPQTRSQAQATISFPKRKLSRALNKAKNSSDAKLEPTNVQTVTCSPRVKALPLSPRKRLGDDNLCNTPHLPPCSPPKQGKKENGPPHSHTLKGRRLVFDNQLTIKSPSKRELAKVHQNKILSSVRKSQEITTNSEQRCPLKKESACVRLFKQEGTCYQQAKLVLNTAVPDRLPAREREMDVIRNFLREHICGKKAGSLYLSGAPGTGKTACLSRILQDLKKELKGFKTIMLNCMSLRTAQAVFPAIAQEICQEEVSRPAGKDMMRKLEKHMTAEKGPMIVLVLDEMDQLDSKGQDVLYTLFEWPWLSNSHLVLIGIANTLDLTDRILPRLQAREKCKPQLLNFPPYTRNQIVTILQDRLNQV

[4] = molecular target: T4, Cyclin F (endogenous, U2OS cells) (human (endogenous in U2OS)) (UniProt P41002); experiment: co-IP; U2OS whole-cell extracts, asynchronous or released from a double-thymidine block; anti-Cyclin F antibody coupled to protein A beads; 50 mM HEPES pH 7.5, 150 mM NaCl, 1 mM EDTA, 2.5 mM EGTA, 10% glycerol, 0.1% Tween; 2 h at 4 °C; immunoblot
T4 sequence: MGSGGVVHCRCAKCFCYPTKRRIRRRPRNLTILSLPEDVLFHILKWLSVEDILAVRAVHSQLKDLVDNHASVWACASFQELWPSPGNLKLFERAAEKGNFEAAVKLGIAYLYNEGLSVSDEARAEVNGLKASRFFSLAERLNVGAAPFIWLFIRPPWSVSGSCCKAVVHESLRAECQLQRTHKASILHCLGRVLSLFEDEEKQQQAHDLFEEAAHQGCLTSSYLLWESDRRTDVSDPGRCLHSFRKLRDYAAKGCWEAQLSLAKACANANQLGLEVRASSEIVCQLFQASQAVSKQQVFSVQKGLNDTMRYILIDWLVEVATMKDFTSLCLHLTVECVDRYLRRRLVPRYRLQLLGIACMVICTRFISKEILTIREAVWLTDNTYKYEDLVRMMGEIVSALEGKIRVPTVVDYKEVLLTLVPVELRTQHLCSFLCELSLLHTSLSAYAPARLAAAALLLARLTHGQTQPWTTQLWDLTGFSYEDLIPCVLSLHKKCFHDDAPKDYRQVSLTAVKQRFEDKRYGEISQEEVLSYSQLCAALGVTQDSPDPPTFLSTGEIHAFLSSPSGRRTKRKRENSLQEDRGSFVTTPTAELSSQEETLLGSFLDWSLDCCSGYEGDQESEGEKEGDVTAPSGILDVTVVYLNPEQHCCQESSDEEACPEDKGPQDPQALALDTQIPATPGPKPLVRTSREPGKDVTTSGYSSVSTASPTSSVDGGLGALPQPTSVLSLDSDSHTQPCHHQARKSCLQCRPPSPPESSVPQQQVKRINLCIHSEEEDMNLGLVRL

[5] = molecular target: T5, FLAG-tagged wild-type Cyclin F (UniProt P41002); experiment: co-IP; HEK-293T cells transfected with FLAG-tagged Cyclin F WT or MR/AA; whole-cell extracts precipitated with anti-FLAG resin; immunoblot for endogenous CDC6
T5 sequence: T4 sequence

[6] = molecular target: T1, HA-tagged mutant CDC6 (dl 93–100) (HEK-293T) (human); experiment: co-IP; HEK-293T cells transfected with HA-tagged CDC6 WT or dl 93–100; whole-cell extracts precipitated with anti-HA resin; immunoblot for Cyclin F
[7] = molecular target: T2, HA-tagged wild-type CDC6 (HEK-293T) (human); experiment: as above

B1: in vitro translated 35S-labelled WT Cyclin F (protein, UniProt P41002 1-786)
chain: T4 sequence
modifications: 35S-methionine-labelled
binding [3]: binds

B3: CDC6 (endogenous, HEK-293T cells) (protein, UniProt Q99741 1-560)
chain: T2 sequence
binding [5]: binds

B4: Cyclin F (HEK-293T cells) (protein, UniProt P41002 1-786)
chain: T4 sequence
binding [6]: no binding
binding [7]: binds

Other lines, results leading:

binding [1]: binds
binding [2]: binds
Molecule: CDH1 (from UniProt Q9UM11 1-496)

binding [4]: binds
B2: CDC6 (endogenous, U2OS cells) (protein, UniProt Q99741 1-560)
chain: T2 sequence
